# Source: the supplement of paper PMC4166925
# ± gives the standard deviation of the averaged measurements. The full ranking holds about 33,000 sequences; the median of “E-score (dimensionless, -0.5 to 0.5)” is about -0.046, and the highest 2% start at about 0.36. Some of the results follow.
# System: T1, SpTbr T-box DNA-binding domain (GST fusion)
# T1 sequence: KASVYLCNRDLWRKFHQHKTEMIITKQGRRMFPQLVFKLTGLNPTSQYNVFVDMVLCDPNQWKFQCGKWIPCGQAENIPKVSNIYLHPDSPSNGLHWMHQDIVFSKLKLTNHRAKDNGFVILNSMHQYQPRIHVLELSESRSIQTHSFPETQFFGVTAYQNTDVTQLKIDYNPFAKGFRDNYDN
# Assay: PBM E-score of 8-mer (E-score (dimensionless, -0.5 to 0.5)); Tbr is Tbrain of the sea star Patiria miniata (Pm) or the sea urchin Strongylocentrotus purpuratus (Sp); higher = stronger binding preference; most listed sequences are background and not binding sites
# Settings: the construct has about 5 more residues each side
# Procedure, shortened: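 Expression of GST-fused Tbr T-box DNA-binding domains, each holding the full T-box plus roughly five flanking residues, was carried out in BL21 E. coli at 20 °C, with purification by glutathione affinity chromatography. Universal Agilent arrays made double-stranded by primer extension were incubated with the protein at 200 nM in PBS (pH 7.5), then scanned and quantified. All ungapped 8-mers were scored from probe intensities, and each received an enrichment E-score from the Universal PBM Analysis Suite, averaged over duplicate arrays.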
row,Sequence,PBM E-score of 8-mer
1,GGTCGCCA,0.114 ± 0.069
2,AAAACTTG,-0.145 ± 0.051
3,CCATCCTA,-0.0982 ± 0.061
4,CGGGCCAC,-0.00788 ± 0.037
5,TAGAATCA,-0.0112 ± 0.055
6,ACTAGTGA,0.215 ± 0.0054
7,ATTAACCC,-0.0932 ± 0.059
8,CTCCCTTA,0.0182 ± 0.0024
9,CCCATGTC,-0.173 ± 0.024
10,CCCAATGA,-0.198 ± 0.013
11,AAGGTGCT,0.4354 ± 0.0022
12,TCGAAAGA,-0.186 ± 0.024
13,CTAAGCAC,-0.0895 ± 0.035
14,GACTAGGC,-0.0291 ± 0.016
15,CTCCATCC,-0.107 ± 0.033
16,GGTATGGA,-0.22 ± 0.034
17,AACAACCA,0.0272 ± 0.04
18,ACGCGTAG,0.207 ± 0.0081
19,CATCACGG,0.152 ± 0.022
20,GGATCTAC,-0.184 ± 0.047
21,ATACAAGA,-0.129 ± 0.086
22,AACTGACC,-0.171 ± 0.019
23,CGATGTAA,-0.0669 ± 0.0028
24,GATCTCAC,0.371 ± 0.02
25,TCTCGTCA,0.255 ± 0.011

row,Sequence,PBM E-score of 8-mer
1,ATCTATGC,-0.197 ± 0.03
2,CCGACTAA,-0.171 ± 0.011
3,AAGATCAA,-0.308 ± 0.008
4,GACACTAA,0.281 ± 0.021
5,AATAGCCA,-0.144 ± 0.11
6,GTTGCAAA,0.174 ± 0.0024
7,AATTAATC,-0.273 ± 0.014
8,AGGGTCTC,-0.14 ± 0.065
9,CTGCATGC,-0.147 ± 0.088
10,CTCCGCGC,-0.0659 ± 0.051
11,AGTGCCTC,-0.183 ± 0.1
12,CGCGATAG,0.197 ± 0.028
13,AAACGCAC,0.119 ± 0.063
14,GAGAACTC,0.0875 ± 0.11
15,AACAGCCC,0.0217 ± 0.058
16,ATCGTACG,-0.269 ± 0.041
17,CCCAGGTA,-0.101 ± 0.0075
18,CCCCTCGA,0.14 ± 0.0029
19,CAATGGGC,-0.128 ± 0.014
20,GCTTATAC,-0.306 ± 0.1
21,AGAGAGTA,-0.124 ± 0.04
22,TCTGGAAA,-0.194 ± 0.015
23,GAGGCAAC,0.0457 ± 0.042
24,AAGGGATG,-0.266 ± 0.02
25,CGCTGCTA,-0.233 ± 0.012

row,Sequence,PBM E-score of 8-mer
1,TCCACCGA,-0.0787 ± 0.04
2,ACGTCCAA,-0.122 ± 0.023
3,GTTGGTAA,0.00396 ± 0.04
4,CGTGGAGA,-0.0921 ± 0.096
5,ACGATTCG,0.0807 ± 0.028
6,GGCTTAAC,0.115 ± 0.015
7,ATGAGCGG,-0.0884 ± 0.004
8,TACTGCTA,-0.184 ± 0.057
9,ATCTGCTC,-0.203 ± 0.026
10,AAACACAT,0.264 ± 0.049
11,AGGGCCCT,-0.275 ± 0.06
12,AAATGACT,-0.113 ± 0.069
13,GCAGGTTA,-0.0483 ± 0.097
14,ATCAGACG,-0.212 ± 0.051
15,ACTGCGGG,-0.0368 ± 0.06
16,TGGAGCAA,-0.114 ± 0.062
17,AGAATAGC,0.0706 ± 0.034
18,ATCCTCGG,-0.27 ± 0.018
19,AGTCGTAC,-0.152 ± 0.0051
20,CCCAATAA,-0.179 ± 0.0015
21,ACGAGGGG,-0.205 ± 0.016
22,GCGTTGAC,0.364 ± 0.0037
23,AAAGTCAT,-0.158 ± 0.024
24,AGCCATTG,-0.112 ± 0.026
25,AGATCCAC,-0.0421 ± 0.029

row,Sequence,PBM E-score of 8-mer
1,AATGTGAC,0.348 ± 0.028
2,GAGCGGAA,-0.0528 ± 0.046
3,CACGAGGG,0.0961 ± 0.0066
4,AGGACTAA,-0.109 ± 0.055
5,ACAGGTAG,0.124 ± 0.023
6,AGCAAGGA,0.0257 ± 0.063
7,AAACGCGC,0.16 ± 0.0042
8,CGTGTGCA,0.183 ± 0.065
9,CACCCGTC,0.277 ± 0.025
10,CAAGTGGG,0.265 ± 0.022
11,CAACGGCC,0.0882 ± 0.062
12,AAGTGTAA,0.399 ± 0.018
13,ACTCACTG,0.0349 ± 0.093
14,AACAACAA,0.102 ± 0.0091
15,CGCCCAAC,-0.0222 ± 0.018
16,CAATGCGA,0.129 ± 0.015
17,ACCGCTGG,0.0499 ± 0.012
18,AGGGACAG,-0.105 ± 0.011
19,AGAGTAAT,-0.127 ± 0.084
20,TCATTGCA,-0.0363 ± 0.0038
21,TCTCAACA,0.126 ± 0.045
22,GAACTCGC,0.218 ± 0.032
23,CCCGCGCC,0.0782 ± 0.054
24,AGAACGTA,-0.103 ± 0.0039
25,AATTAGCG,0.222 ± 0.054

row,Sequence,PBM E-score of 8-mer
1,ACTTCCAG,0.0352 ± 0.018
2,AGTAGCCG,-0.142 ± 0.036
3,GAAGAGGA,-0.167 ± 0.0076
4,ACTCTTCT,-0.224 ± 0.0037
5,AGGTCCGA,-0.19 ± 0.039
6,CTAGCTCC,-0.105 ± 0.1
7,ATTCTAAG,-0.0865 ± 0.025
8,AATGTCTC,-0.195 ± 0.03
9,AACAATGA,0.0839 ± 0.096
10,CCCTCCCC,-0.0206 ± 0.028
11,CCACCCCG,0.231 ± 0.055
12,CCTCAAAC,-0.0544 ± 0.056
13,AGACGACA,0.00539 ± 0.033
14,ACCATAAG,-0.182 ± 0.058
15,ATATCTGA,-0.323 ± 0.0072
16,GAGATTGA,-0.0704 ± 0.013
17,CATTCCCA,0.0508 ± 0.048
18,ATGCCGCA,-0.00925 ± 0.053
19,ACCTGGAA,0.139 ± 0.053
20,CAGACGTA,-0.103 ± 0.08
21,GACCAAGA,-0.075 ± 0.058
22,TTCACAAA,0.207 ± 0.074
23,CAGGGATA,-0.339 ± 0.027
24,CCCAGCTA,-0.144 ± 0.013
25,GCTCATCC,-0.141 ± 0.0052

row,Sequence,PBM E-score of 8-mer
1,AAACCGCC,-0.0164 ± 0.032
2,CGCACGTA,0.145 ± 0.045
3,ACGCCCCC,-0.0304 ± 0.011
4,TTACCTAA,-0.0233 ± 0.055
5,GAATATTA,0.0503 ± 0.027
6,GGGCGTAC,-0.171 ± 0.058
7,ACCATTTA,-0.106 ± 0.038
8,CTGCGGTA,-0.219 ± 0.026
9,CCAATGCG,-0.014 ± 0.064
10,GTTGAAGA,0.0103 ± 0.024
11,AATTCATG,-0.0111 ± 0.14
12,CCACAAGG,-0.0106 ± 0.06
13,GCGGATCC,-0.0612 ± 0.051
14,CCACTAGC,0.109 ± 0.032
15,CACCGATC,0.154 ± 0.014
16,CAATGCCC,-0.0949 ± 0.074
17,AGGTGAAA,0.266 ± 0.045
18,ACTCACAA,0.197 ± 0.0079
19,GAACGCGC,0.118 ± 0.082
20,GCGACGAC,0.199 ± 0.043
21,AGAGTGGA,-0.0491 ± 0.061
22,CCATAGAG,-0.191 ± 0.023
23,GCCGTTCA,0.0476 ± 0.01
24,GAGACCTA,-0.0561 ± 0.012
25,ACCACAAT,-0.0442 ± 0.058

row,Sequence,PBM E-score of 8-mer
1,GCCGCCGC,-0.174 ± 0.02
2,ATGCCGAC,0.104 ± 0.056
3,ATGGGGAC,-0.236 ± 0.057
4,ACCTCTCA,0.237 ± 0.018
5,CTACTAAC,0.193 ± 0.01
6,AACGCCAC,0.247 ± 0.019
7,CATGATTA,-0.189 ± 0.0078
8,CAAAGACG,0.0798 ± 0.027
9,CTCATCGA,0.00436 ± 0.066
10,AAAGCAGC,-0.0846 ± 0.00013
11,ACTACCCG,-0.0195 ± 0.094
12,AGACGGTG,0.0312 ± 0.0069
13,CAGCAATG,0.09882 ± 0.00078
14,CAAGACAG,-0.0195 ± 0.06
15,ACGAGTTC,-0.0205 ± 0.056
16,CTACCTTC,-0.0788 ± 0.011
17,ACACAGAT,0.0853 ± 0.0088
18,CCCAGCGA,-0.014 ± 0.13
19,GGCCAACA,0.0485 ± 0.028
20,CAATCGAC,0.0568 ± 0.033
21,ACGAGAGT,-0.025 ± 0.013
22,GTTATTTA,0.0194 ± 0.077
